# The other results are listed elsewhere or left out.
# How the values were obtained:
# HSkMC = human skeletal muscle cells; test: cytotoxicity call (relative viability < 0.9); details: 10 µM
# HepG2 = test: cytotoxicity call (relative viability < 0.9); details: 10 µM
# S. aureus RN4220 = test: growth inhibition call (relative growth <= 0.2); details: 50 µM
SMILES,cytotoxicity call (HSkMC),cytotoxicity call (HepG2),growth inhibition call (S. aureus RN4220)
CCS(=O)(=O)Nc1ccc2c(c1)C(=O)N(C)C[C@@H](OC)[C@H](C)CN(CCC(F)(F)F)[C@@H](C)CO2,inactive,inactive,inactive
C[C@@H]1CN([C@@H](C)CO)C(=O)c2cc(NC(=O)Nc3cccc4ccccc34)ccc2O[C@@H](C)CCCCO[C@H]1CN(C)C(=O)Nc1ccccc1,inactive,inactive,inactive
O=C(C[C@@H]1CC[C@@H]2NC[C@@H](O)COC[C@H]2O1)NCCN1CCCCC1,inactive,inactive,inactive
OCc1ccc2nccn2c1,inactive,inactive,inactive
C[C@@H]1CCCCO[C@@H](CN(C)C(=O)Nc2ccc3c(c2)OCO3)[C@H](C)CN([C@@H](C)CO)C(=O)c2cc(NC(=O)c3ccccc3)ccc2O1,inactive,inactive,inactive
C[C@H](CO)N1C[C@H](C)[C@H](CN(C)CC2CC2)Oc2cc(C#Cc3ccccc3F)ccc2S1(=O)=O,inactive,active,inactive
Cc1noc(C)c1S(=O)(=O)Nc1cccc2c1O[C@@H](CN(C)S(=O)(=O)c1ccc(F)cc1)[C@@H](C)CN([C@@H](C)CO)C2=O,inactive,inactive,inactive
Cc1cc(N)n2nc(C)cc2n1,inactive,inactive,inactive
Cc1ccc(S(=O)(=O)Nc2ccc3c(c2)C(=O)N([C@@H](C)CO)C[C@@H](C)[C@@H](CN(C)C(=O)Nc2ccc4c(c2)OCO4)OCCCC[C@@H](C)O3)cc1,inactive,inactive,inactive
CCCNc1nc(Nc2ccc(C#N)cc2)ncc1C#CCCCNC(=O)[C@H](C)N(C)C(=O)/C=C/CN(C)C,active,active,inactive
C[C@H]1CN([C@@H](C)CO)C(=O)Cc2cc(NC(=O)Nc3cccc4c3CCCC4)ccc2O[C@H]1CN(C)S(=O)(=O)c1ccc(Cl)cc1,inactive,inactive,inactive
Cc1cccc(C)c1NC(=O)[C@@H](C)N,inactive,inactive,inactive
COC(=O)C1=C(C)NC(C)=C(C(=O)OC)C1,inactive,inactive,inactive
C[C@@H]1CN([C@@H](C)CO)C(=O)c2cc(NS(=O)(=O)c3ccc(F)cc3)ccc2O[C@@H](C)CCCCO[C@H]1CN(C)Cc1ccc(C(F)(F)F)cc1,inactive,inactive,inactive
C[C@H](CO)N1C[C@H](C)[C@@H](CN(C)S(=O)(=O)c2cccs2)Oc2ccc(NS(=O)(=O)c3cn(C)cn3)cc2C1=O,inactive,inactive,inactive
C[C@@H]1CN([C@H](C)CO)C(=O)Cc2cc(NS(=O)(=O)c3cn(C)cn3)ccc2O[C@@H]1CN(C)C(=O)Nc1ccccc1,inactive,inactive,inactive
O=C(C[C@H]1CC[C@H](NC(=O)Nc2ccc3c(c2)OCO3)[C@H](CO)O1)NCCCN1CCOCC1,inactive,inactive,inactive
Cc1cc(C(=O)Nc2cccc3c2O[C@H](CN(C)S(=O)(=O)c2c(C)noc2C)[C@H](C)CN([C@@H](C)CO)C3=O)n(C)n1,inactive,inactive,inactive
C/C=C/c1ccc2c(c1)O[C@@H](CN(C)S(=O)(=O)c1ccc(C)cc1)[C@@H](C)CN([C@@H](C)CO)S2(=O)=O,inactive,inactive,inactive
C[C@@H]1CN([C@H](C)CO)C(=O)Cc2cc(NS(=O)(=O)c3cn(C)cn3)ccc2O[C@@H]1CN(C)Cc1ccncc1,inactive,inactive,inactive
C[C@@H]1CN([C@H](C)CO)S(=O)(=O)c2ccc(C#Cc3ccc(F)cc3)cc2O[C@@H]1CN(C)S(=O)(=O)c1cn(C)cn1,inactive,inactive,inactive
COc1ccc(CN(C)C[C@H]2Oc3ccc(NC(=O)Cn4cnnn4)cc3CC(=O)N([C@@H](C)CO)C[C@H]2C)cc1,inactive,inactive,inactive
C[C@@H]1CN([C@@H](C)CO)C(=O)c2cc(NC(=O)Nc3ccccc3)ccc2O[C@@H](C)CCCCO[C@@H]1CN(C)C(=O)Nc1ccccc1,inactive,inactive,inactive
CCC(CC)c1nc(Nc2ccccc2)c2ccccc2n1,inactive,inactive,active
CC(C)NC(=O)N(C)C[C@@H]1Oc2c(NC(=O)C3CCCCC3)cccc2C(=O)N([C@H](C)CO)C[C@@H]1C,inactive,inactive,inactive
C[C@@H]1CCCCO[C@@H](CN(C)CC2CCCCC2)[C@@H](C)CN([C@@H](C)CO)C(=O)c2cc(NC(=O)CCC(F)(F)F)ccc2O1,inactive,inactive,inactive

# — the antibiotic and cytotoxicity screens of Wong et al. (2023)
